Measured values from the supplement of paper PMC11417369.
± gives the standard deviation of the averaged measurements. The list shows a part of the results.

Tested on: PfAP2-I AP2 domain 3 (GST-tagged)
Experiment: gcPBM binding intensity (ln(normalized median fluorescence intensity)); higher = stronger DNA binding
In short: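 Alexa488 anti-GST antibody, scanned at 488 nm, detected GST-tagged P. falciparum DNA-binding domains that had been expressed in E. coli and incubated for 1 h on an Agilent 4 × 180k array. The array carried primer-extended double-stranded 36-bp intergenic genomic probes and negative controls. Binding intensity is the highest Masliner-normalised natural-log median intensity across replicate spots of either orientation of each probe.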

Sequence	gcPBM binding intensity (ln)
TATAGTCAACTAGTCACACATATAATTATATATATA [CACACA_site5872]	8.4 ± 0.49
TATTTTTTTTGTCATATATAAGAAACGCTCTTCTTT [TGCATGCA_negctrl_site127]	7.5 ± 0.79
ATATTTATATTTTCATGTACGTATTTTTATATATAT [XGTACX_site8478]	8.18 ± 0.49
TGAAATAAAATTTGTACACACATATTTATTTATATA [CACACA_site6421]	7.62 ± 0.27
TGCATTATATTAAATTTTTTATTTGTTGATGTTATA [GTGCAC_negctrl_site371]	7.75 ± 0.33
AAATAAAAGATATTTTTACACACTTTTGATGAGATC [CACACA_site9000]	7.62 ± 0.6
TAAAGTACAGGAGTAAATTGAAAAAAAAAAAAAAAA [CACACA_negctrl_site1410]	8.03 ± 0.45
ATAAATAAATAAATACGTACATATATATATATATAT [XGTACX_site8838]	9.19 ± 0.38
TATAATATTCCTTTTTAACACACATATGAACAAATA [CACACA_site7932]	7.87 ± 0.44
ATACATATATTTTTATGTACATATATTTTTTTTGTA [XGTACX_site4546]	7.7 ± 0.37
TTGATATCTTTTTTTTGTACATATATTTATAAGTAA [XGTACX_site3538]	7.71 ± 0.46
TTTTTTTAAATTATATGTACATAATTTTAATTTTAT [XGTACX_site5086]	7.74 ± 0.36
TTTTAGAGTGATATATATTAACTTTTAATAAAAAAA [CACACA_negctrl_site611]	7.63 ± 0.3
AAAATATAAGCCACTACACACATATATAAATGTATA [CACACA_site2639]	8.54 ± 0.29
GTTATACACATATATACACACATATGTAGATATATA [CACACA_site7529]	7.96 ± 0.3
TTGTACATCTTTTGCACACGTAATGTTATTAAAATA [CACACA_site4827]	9.38 ± 0.071
TGTATATTTGTTGTTACACACATATATTTTTTTTTT [CACACA_site128]	7.65 ± 0.47
TTATAACAAAAAATTAAAGAAAGAGAATAAGTGAAA [CACACA_negctrl_site975]	8 ± 0.59
AGGTCCTACACCAATAAATATCATATATATATTATA [CACACA_negctrl_site568]	7.51 ± 0.55
TTAACTATAATAAAATGTACATATGTAACATATATA [XGTACX_site7790]	7.58 ± 0.44
ATGATTTTTTTTATTTTTTAGCTAGAGCTAGCTTAT [CACACA_negctrl_site433]	7.6 ± 0.68
TATGGAAGAAAATATACACACAAAAAAAAAAAATGG [CACACA_site4924]	8.22 ± 0.46
AACACTCAAAAAAATTTAAATAAAAAAAAAAAAAAA [CACACA_negctrl_site680]	7.94 ± 0.83
TATGAATGCTTTTATGCACACGTACAAAAATATTAT [CACACA_site8851]	9.74 ± 0.5
